The whole screen tested about 420,000 compounds, of which about 50,000 (12%) were called active. Inconclusive means that the source gave no clear call. Such entries were picked first, then a sample of the others. The call rests on the fitted dose curve; in most records, active means well fitted inhibition curve with a large enough effect; inconclusive means small, poorly fitted or top-dose-only effect; inactive means flat fitted curve, though single readings scatter. No potency is given beside an inconclusive call; the fits are too rough.
Test: qHTS for Inhibitors of human tyrosyl-DNA phosphodiesterase 1 (TDP1): qHTS in cells in presence of CPT; further: nearly all actives have a fitted effect of over 55% in size
Details: chicken DT40 Tdp1-/-;hTDP1 cells + 20 nM CPT, ATP luminescence, 48 h; activity change, negative = growth inhibition: at 46.2 µM (top of the series)
Summary of the method: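 Chicken DT40 Tdp1-/- cells complemented with human TDP1, 400 cells/well, exposed to compounds plus 20 nM camptothecin for at least 48 h at 37 C; viability read as ATP content by CellTiter-Glo luminescence.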
On the % scale 0 is the no-effect control and ±100 the full control effect; potency means the concentration at half of the fitted maximal effect; tags describe the fitted curve by direction and shape.

Compound	Potency	activity change, negative = growth inhibition
C[C@H](O)C#Cc1ccc2c(c1)O[C@@H](CN(C)C(=O)c1ccncc1)[C@@H](C)CN([C@H](C)CO)S2(=O)=O	inconclusive [inhibitor, full curve, poor fit]	–
CN(C(=O)C1CCN(S(=O)(=O)c2ccccc2)CC1)c1c(N)n(Cc2ccccc2)c(=O)[nH]c1=O	inactive	–
Cc1cc(NC(=O)/C=C/c2ccc(F)cc2)n(-c2nc3ccccc3[nH]2)n1	inconclusive [inhibitor, single point]	–
CC(NS(=O)(=O)c1ccc(Br)cc1)C(=O)Nc1nc2ccccc2[nH]1 (centres undefined)	inconclusive [inhibitor, single point]	–
Cc1nc2cc(NCc3cc([N+](=O)[O-])ccc3O)ccc2n1Cc1ccccc1	inactive	–
Cc1cc(C(=O)N/N=C\C(Br)=C\c2ccccc2)c(C)o1	active: 8.2 µM	–
O=C(NCCc1ccccc1)C1CCCN1S(=O)(=O)c1ccc(F)cc1 (centres undefined)	inconclusive [inhibitor, single point]	–
O=S(=O)(Nc1nc2ccc(Cl)cc2s1)c1cccs1	inconclusive [inhibitor, single point]	–
S=C(NC1CCCCC1)N1CCn2cccc2C1c1cccnc1 (centres undefined)	inconclusive [inhibitor, single point]	–
O=C(Nc1cc(N2CCOCC2)ncn1)c1ccc(F)cc1	inactive	–
COc1ccc(/C=C/C(=O)NNC(=O)c2ccncc2)c(OC)c1	inactive	–
CN1C(=O)[C@H]2[C@@H](/C=C/c3ccccc3)N3C(=O)CN(Cc4ccccn4)C(=O)[C@@]3(C)[C@H]2C1=O	inactive	–
Cn1nc(SCc2ccccc2)c(=O)n(C(c2ccccc2)c2ccccc2)c1=O	inconclusive [inhibitor, single point]	–
NC(=O)c1cc(-c2ccccc2)nc(N2CCCCCC2)n1	inconclusive [inhibitor, partial curve]	–
O=C(c1ccco1)N1CCN(c2nc(-c3ccc(F)cc3)cs2)CC1	inconclusive [inhibitor, single point]	–
Cc1cccc(N2CC(C)Cn3c2nc2c3c(=O)n(CC(=O)OCc3ccccc3)c(=O)n2C)c1 (centres undefined)	active: 23.1 µM	–
CCCCCCc1cc2cc(S(=O)(=O)c3ccc(Cl)cc3)c(=O)oc2cc1O	inconclusive [inhibitor, single point]	–
CCN(CC)S(=O)(=O)c1cc(C(=O)Nc2cc(S(=O)(=O)N3CCOCC3)ccc2N2CCCC2)ccc1F	inconclusive [inhibitor, single point]	–
CCCCN(CC)S(=O)(=O)c1c(C)[nH]c(=O)[nH]c1=O	–	inconclusive: -35.1% [inhibitor]
Cc1ccc(S(=O)(=O)NCCCNS(=O)(=O)c2ccccc2)cc1	inactive	–
O=C(N/N=C\c1ccc(CN(Cc2ccc(Cl)cc2)S(=O)(=O)c2ccccc2)o1)C(=O)Nc1ccc(F)cc1	inconclusive [inhibitor, single point]	–
CC(c1nc2ccccc2[nH]1)n1c(=O)c(-c2cccnc2)nc2ccccc21 (centres undefined)	active: 23.1 µM	–

Compound	Potency	activity change, negative = growth inhibition
O=C(NCc1ccc(F)cc1F)c1cc(COc2c(F)cccc2F)on1	inactive	–
Cc1cc(C)c(NC(=O)C2C3/C=C\CCCCC32)c(C)c1 (centres undefined)	inactive	–
Cc1cc(O)c(CN(C)C)c2c1C(=O)/C(=C/c1ccco1)O2	inconclusive [inhibitor, full curve]	–
CCCCCCCCN1C(=O)[C@H](CC(=O)NCc2ccc(C)o2)C[C@@]2(C(=O)OC)CC(C)(C)CC=C12	active: 11.6 µM	–
NC(=O)c1ccc(SCC(=O)OCC(=O)NC2CCCCCCC2)c([N+](=O)[O-])c1	inactive	–
CCOC(=O)C1=CNS(=O)(=O)NC1CCc1ccccc1 (centres undefined)	inconclusive [inhibitor, partial curve]	–
OCCNc1nc(Nc2ccc(O)cc2)nc2ccccc12	inconclusive [inhibitor, single point]	–
O=C(c1ccc2c(c1)N(Cc1ccccc1F)C(=O)c1ccccc1S2=O)N1CCN(c2ccccc2)CC1 (centres undefined)	active: 23.1 µM	–
CNc1ccccc1C(=O)OCC(=O)N1CCN(c2ccc(OC)cc2)CC1	inconclusive [inhibitor, partial curve, poor fit]	–
CCc1ccc(NC(=O)Cn2c3ncccc3c(=O)n2-c2ccc(C)c(C)c2)cc1	inconclusive [inhibitor, single point]	–
COc1ccc(-c2sc3cc(OC)ccc3c2-c2ccc(OCCN3CCCCC3)cc2)cc1	active: 4.61 µM	–
Cc1cn([C@H]2C[C@H](O)[C@@H](/C=C/C(=O)NCc3ccc4c(c3)OCO4)O2)c(=O)[nH]c1=O	inactive	–
Cc1sc2ncn(CC(=O)Nc3c(F)cccc3F)c(=O)c2c1S(=O)(=O)N1CCC(C)CC1	inactive	–
CCCCC(=O)NC(c1ccc(Cl)cc1)c1ccc2cccnc2c1O (centres undefined)	active: 1.3 µM	–
O=C(NCCc1csc(-c2cccc(F)c2)n1)c1cccs1	inconclusive [inhibitor, single point]	–
Cc1c(CN2CC[C@@H](N3CCN(c4ccccn4)CC3)[C@H](O)C2)[nH]c2ccc(F)cc12	inconclusive [inhibitor, single point]	–
CC(C)(C)n1nc2c(c1NC(=O)c1cccc(Cl)c1)CS(=O)(=O)C2	inactive	–
CCOC(=O)C1(Cc2cccc(OC)c2)CCCN(C(=O)c2ccccc2C)C1 (centres undefined)	inconclusive [inhibitor, single point]	–
N#Cc1ccc(CN2CCCC3(CCN(C(=O)c4cccc(F)c4)CC3)C2)cc1	inconclusive [inhibitor, single point]	–
CCn1cc(/C=C/C(=O)c2ccc(O)cc2)c(C)n1	inactive	–
CC(=O)NC(Cc1ccc(I)cc1)C(=O)NCC(N)C(=O)c1ccccc1 (centres undefined)	inconclusive [inhibitor, single point]	–
O=c1[nH]cccc1-c1nc2ccccc2n1Cc1ccccc1F	active: 20.6 µM	–
